# Measured values from PMC12040169 (PLOS Biology, 2025).
# Some of the results follow.
# Test system: T1, C. trachomatis L2/434/Bu expressing GFP (CTL2-GFP)
# T1 construct: L2/434/Bu GFP intracellular growth in HeLa cells
# Design: species or system HeLa; C. trachomatis total inclusion area by high-content imaging, normalised to DMSO
# Conditions: total inclusion area; 28.5 h, 10 µM; inhibitor
# Procedure, shortened: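 Post-fluorescence-read fixation, DNA staining with Hoechst and high-content imaging; GFP inclusion area and number per well, and nuclei counts, used as proxies for bacterial growth and host viability.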
row,Structure (SMILES),% of control remaining
1,Cc1cc(C)n(CCn2cc(-c3ncc[nH]3)nn2)c(=O)n1 [CBK307554],86.5594
2,COc1ccccc1Cc1cccc(C2CCCN2C(=O)Cc2c[nH]c3ccccc23)n1 (stereo not drawn) [CBK286139],75.9738
3,Cc1cc(S(=O)(=O)Nc2ccccc2-c2nnnn2C(C)C)c(C)o1 [CBK306259],77.9341
4,O=c1[nH]c(=O)c2cc(S(=O)(=O)Nc3ccccc3-c3ccccc3)ccc2[nH]1 [CBK286374],92.1051
5,Cn1nc(-c2cccs2)cc1[C@H]1CN2CC[C@H]1C[C@@H]2CNC(=O)c1ccco1 [CBK289100],104.099
6,Cc1cc(NC(=O)CN2CCCC2CC(O)c2ccccc2)no1 (stereo not drawn) [CBK305139],52.1793
7,S=c1[nH]cnc2sc3c(c12)CCCC3 [CBK027787],67.3897
8,CC(=O)Nc1ccc(-c2ccc(C(=O)NCC3COc4ccccc4O3)cn2)cc1 (stereo not drawn) [CBK158832],86.3473
9,Cc1cc(C)c2nc(NC(=O)c3ccc(=O)n(CC(=O)NC4CCCCC4)c3)sc2c1 [CBK285980],84.3411
10,Cc1nnc(SCc2cc(=O)nc(NC(=N)Nc3cccc(Cl)c3)[nH]2)s1 [CBK266318],54.8238
11,C1=CCC(CN(CCCn2ccnc2)CC2CCOC2)CC1 (stereo not drawn) [CBK283217],115.663
12,Cc1cc(COc2ccnc(N3CCCN(CC(N)=O)CC3)n2)no1 [CBK084036],48.0854
13,Cc1ccc(C(CNCc2cn(C)nc2-c2cccnc2)N(C)C)cc1 (stereo not drawn) [CBK305343],91.8922
14,N#CCCCN1CCC(Oc2nccnc2OCc2ccc(-c3ccccc3)cc2)CC1 [CBK161566],61.8195
15,CC(=O)Nc1ccc(Nc2cc(-c3ccco3)ncn2)cc1 [CBK090719],152.829
16,Cc1cccc(-c2ncc(C(=O)NCc3csc4ccc(Cl)cc34)cc2-c2ccncc2)c1 [CBK036770],72.6827
17,COC(=O)C(C)CN1CC2CCC(CC2)C1 (stereo not drawn) [CBK022785C],75.3239
18,CCCc1cnc(N2CCN(CC(=O)Nc3ccc(C(C)=O)cc3)CC2)nc1 [CBK086194],108.887
19,Cc1ccc(S(=O)(=O)N(CC(=O)Nc2ccccc2-c2ccccc2)c2cccc(C)c2)cc1 [CBK265988],66.9098
20,Cc1ccc2nsnc2c1NC(=O)CN1CCC(C)CC1 [CBK269568],92.2371
21,O=c1[nH]c(NCCCO)nc2sc3c(c12)CCCC3 [CBK025611],30.0022

row,Structure (SMILES),% of control remaining
1,O=C(Cn1cnc2c(oc3ccccc32)c1=O)Nc1ccc2c(c1)OCO2 [CBK287557],92.3633
2,CNC(=O)C1(Cc2cccc(-c3cccs3)c2)CCN(C(=O)CCc2ccccc2)CC1 [CBK285913],115.108
3,CN(C)c1cccc(COc2cncc(N3CCNCC3)n2)c1 [CBK200004],46.5885
4,Cc1cc(S(=O)(=O)Nc2cccc(C(=O)O)c2)c(C)c(S(=O)(=O)c2ccccc2)c1 [CBK263227],56.2784
5,Cc1c(NC(=S)NCCCN2CCOCC2)c(=O)n(-c2ccccc2)n1C [CBK008032],67.2556
6,CC(SC1CCc2ccccc2NC1=O)C(=O)O (stereo not drawn) [CBK286652],77.1123
7,CCOC(=O)N1CCC(NC(=O)N2CCN(c3ccc(F)cc3)CC2)CC1 [CBK156429],96.3433
8,O=C1N[C@@H]2CCN(C(=O)COc3cccnc3)C[C@@H]2CCCCCOc2ccccc21 [CBK292037],132.598
9,Cc1nc(C)c(C(=O)NCC(C)(C)N2CCCCC2)o1 [CBK281866],103.682
10,O=C1NC[C@@H](Cc2ccccc2)NC(=O)C2(C/C=C/COc3ccccc31)CCN(C(=O)CN1CCCC1)CC2 [CBK292184],65.267
11,Cc1ccc(S(=O)(=O)CC(=O)Nc2ncccn2)cc1 [CBK269800],102.593
12,N#Cc1ccc2nc([C@H]3CCN(C(=O)c4ccccc4)C3)[nH]c2c1 [CBK289379],106.398
13,CCNC(=O)N1C[C@@H]2OCC(=O)N(Cc3ccccc3)[C@@H]2C1 [CBK289679],99.406
14,CC(NC(=O)c1ccc(F)cc1Cl)c1ccccc1 (stereo not drawn) [CBK270317],86.2325
15,CCN(CC)C(=O)CN1CCN(c2nccnc2OCc2cccnc2)CC1 [CBK083140],94.7741
16,C[C@@H](Cn1nc2c(cc1=O)CCCC2)NC(=O)c1ccccc1F [CBK284560],106.531
17,COc1ccc(C2CCN(CC(=O)NCc3ccco3)CC2)cc1 [CBK283562],95.6553
18,COc1cc(NC(=O)COc2cccc3ccccc23)c(C(=O)O)cc1OC [CBK268253],130.812
19,O=C(c1c[nH]c(=O)c(Cl)c1)N1CCCCC1CN1CCOCC1 (stereo not drawn) [CBK304416],99.6679
20,COc1ccc(-n2ncc3c2CC(C)(C)CC3N)cc1 (stereo not drawn) [CBK306789],95.7238
21,CN1CCC(=NNC(=O)c2ccc(CN3CCOCC3)cc2)CC1 [CBK262749],87.9799

row,Structure (SMILES),% of control remaining
1,Cc1c(CN2CCCCC2CCN2CCCC2=O)oc2ccccc12 (stereo not drawn) [CBK282181],91.1874
2,O=C(Cc1ccccn1)N1CCN(Cc2ccccc2)CC1 [CBK200174],96.951
3,Cc1ncsc1CCOC(=O)N1C[C@@H](C)O[C@@H](C)C1 [CBK200418],89.0743
4,Clc1ccc(-c2ccc(CNCCCN3CCOCC3)o2)cc1 [CBK269562C],94.0565
5,O=C(Nc1ccncc1)c1c(O)n(Cc2ccccc2)c2ccccc2c1=O [CBK291222],87.3844
6,C=Cn1ncc(CN(CCN(C)C)Cc2ccc(C)o2)c1C [CBK283236],92.8143
7,CCOC(=O)N1CCC(NS(=O)(=O)c2ccc(NC(C)=O)cc2)CC1 [CBK045470],58.6587
8,Cc1ccc(C(=O)NC2CCCC2)cn1 [CBK200117],97.865
9,O=C(CN1CC(O)CC1c1cccc(C(F)(F)F)c1)NCc1cccs1 (stereo not drawn) [CBK305253],90.8724
10,CC1=NN(c2ccc(S(N)(=O)=O)cc2)C(=O)/C1=C\c1ccc(-c2cc([N+](=O)[O-])ccc2C)o1 [CBK263460],103.125
11,Cc1cccc(NS(=O)(=O)c2ccc(I)cc2)n1 [CBK268818],108.698
12,CCOc1ccc(S(=O)(=O)N2CCC(C(=O)N3CCN(C)CC3)CC2)cc1 [CBK270075],82.7437
13,COc1ccc(N2CCN(c3cncc(-c4cccnc4)n3)CC2)cc1OC [CBK066086],79.7324
14,CCN(CC)C(=O)c1cccc(OC)c1 [CBK012105],103.315
15,c1ccc2[nH]c(CCc3nc4ccccc4[nH]3)nc2c1 [CBK261807],83.8447
16,O=C1CC2(CCCC2)C(=O)N1c1ccc(S(=O)(=O)NC2CCN(Cc3ccccc3)CC2)cc1Cl [CBK074650],86.6888
17,Cc1nn(C)c(C)c1CN(C)C(=O)CCCC(=O)O [CBK286879],97.0491
18,NNC(=O)CNC(c1cc(Br)ccc1N)c1ccccc1Cl (stereo not drawn) [CBK262977],102.481
19,c1ccc(-n2nnnc2CSc2nc3ccccc3s2)cc1 [CBK266372],72.2142
20,CC1CN(C(=O)c2ncoc2-c2ccc(F)cc2)CC(C)O1 (stereo not drawn) [CBK282379],108.378
21,CC(=O)Nc1cccc(CNC(=O)c2cccnc2OCC(F)(F)F)c1 [CBK304557],46.9763

row,Structure (SMILES),% of control remaining
1,CSCCCNC(=O)N1CCN(CCc2ccccc2)CC1 [CBK158900],98.513
2,CC(=O)NCCNC(=O)c1cc(Br)c[nH]1 [CBK297767],99.773
3,Oc1ccc(CN2CCN(c3ncccn3)CC2)cc1 [CBK261567],93.2293
4,Oc1ccc(/C=N/Nc2nncc(-c3ccccc3)n2)c(O)c1O [CBK262492],65.0183
5,O=C(c1cccc(NS(=O)(=O)c2cc(F)c(Br)cc2F)c1)N1CCOCC1 [CBK039007],81.9855
6,Cc1csc2ncnc(NCCc3ccccn3)c12 [CBK017060],58.0736
7,COc1ccc(/C=C/c2nc(C#N)c(NCc3cccnc3)o2)cc1OC [CBK269240],83.004
8,Cc1nc(C)c(C(=O)N2CCc3[nH]c4ccccc4c3C2)o1 [CBK281873],93.7637
9,OC1(c2cccnc2)C2CCCC1CN(Cc1cccc(F)c1F)C2 (stereo not drawn) [CBK285205],89.9612
10,O=C(NCC1CCCCC1)N1CCN(c2ccc(F)cc2)CC1 [CBK156397],91.5732
11,Cc1c(C)[n+]([O-])c2cc(N3CCN(C)CC3)c(Cl)cc2[n+]1[O-] [CBK263503],93.151
12,CC(C(=O)NC1(C#N)CCCCC1)N1CCOC(CN(C)C)C1 (stereo not drawn) [CBK305155],105.278
13,Cc1cccc(C)c1OCC(=O)N1CCC(c2cc(C(=O)NC(C)C)c3ccccc3n2)C1 (stereo not drawn) [CBK285916],95.4162
14,CCc1noc(C(C)N2CCN(CC(=O)NCc3ccco3)CC2)n1 (stereo not drawn) [CBK305368],58.2814
15,Cc1cc(N2CCOCC2)c2c(N)c(C)cc(C)c2n1 [CBK126908],107.925
16,O=C(c1ccccc1)n1cc(-c2ccccn2)c(N2CCOCC2)n1 [CBK021010],99.8723
17,COC(=O)CNC(c1cc(Br)ccc1N)c1ccccc1Cl (stereo not drawn) [CBK262605],105.589
18,Cc1ccc(N)c(C(=O)CCCCC(=O)O)c1 [CBK260970],83.1714
